Enrichment ratio data for 153 variants are collected here from a collection of fitness landscapes (doi:10.1126/science.1257360).

B1: PhoQ; a variant is named by its letters at X, in order, P23837 (parent)
chain: MKKLLRLFFPLSLRVRFLLATAAVVLVLSLAYGMVALIGYSVSFDKTTFRLLRGESNLFYTLAKWENNKLHVELPENIDKQSPTMTLIYDENGQLLWAQRDVPWLMKMIQPDWLKSNGFHEIEADVNDTSLLLSGDHSIQQQLQEVREDDDDAEMTHSVAVNVYPATSRMPKLTIVVVDTIPVELKSSYMVWSWFIYVLSANLLLVIPLLWVAAWWSLRPIEALAKEVRELEEHNRELLNPATTRELTSLVRNLNRLLKSERERYDKYRTTLTDLTHSLKTPLXXLQXXLRSLRSEKMSVSDAEPVMLEQISRISQQIGYYLHRASMRGGTLLSRELHPVAPLLDNLTSALNKVYQRKGVNISLDISPEISFVGEQNDFVEVMGNVLDNACKYCLEFVEISARQTDEHLYIVVEDDGPGIPLSKREVIFDRGQRVDTLRPGQGVGLAVAREITEQYEGKIVAGESMLGGARMEVIFGRQHSAPKDE

This is one part of the list.

Variants of B1 are the subject of this experiment. Briefly: enrichment ratio after two sorts for PhoP signalling (ratio (wild type AVST 3.29)); higher = more functional. The note with it: with PhoP (E. coli).
Consider THPL, for which the enrichment ratio is ≤ 0.25.

With QMYR, the enrichment ratio was ≤ 0.25.

For MMMW, the enrichment ratio is ≤ 0.25.

For the variant YALI, the enrichment ratio worked out at 13.3.

With RPSI, the enrichment ratio was ≤ 0.25.

For FAMN, the enrichment ratio is ≤ 0.25.

RCVQ: the enrichment ratio is ≤ 0.25.

As to WFGA, the enrichment ratio is ≤ 0.25.

On to EMWW, for which the enrichment ratio is ≤ 0.25.

FPWG: the enrichment ratio is ≤ 0.25.

Take TTMQ: the enrichment ratio was determined as 30.4.

Regarding STWH, the enrichment ratio was found to be 0.743.

Turning to RQWP, the enrichment ratio was ≤ 0.25.

For TKKG, the enrichment ratio is ≤ 0.25.

As to CISS, the enrichment ratio was ≤ 0.25.

Turning to TENY, the enrichment ratio turned out to be 11.3.

As for QNDR, the enrichment ratio was ≤ 0.25.

With LHQC, the enrichment ratio is ≤ 0.25.

Turning to ITFV, the enrichment ratio was ≤ 0.25.

Take KNIN: the enrichment ratio was ≤ 0.25.

Turning to WDQY, the enrichment ratio is ≤ 0.25.

As to PSHT, the enrichment ratio was ≤ 0.25.

TWWV: the enrichment ratio is ≤ 0.25.

For PLWH, the enrichment ratio was ≤ 0.25.

In the case of PAIT, the enrichment ratio is ≤ 0.25.

WSWT: the enrichment ratio was ≤ 0.25.

For DPNS, the enrichment ratio is ≤ 0.25.

In the case of MDII, the enrichment ratio was ≤ 0.25.

For KLCM, the enrichment ratio was ≤ 0.25.

For the variant SMYC, the enrichment ratio is ≤ 0.25.

For WPAE, the enrichment ratio is ≤ 0.25.

As for KLKR, the enrichment ratio is ≤ 0.25.

For the variant EMSC, the enrichment ratio was ≤ 0.25.

With IPYA, the enrichment ratio was ≤ 0.25.

In the case of ARHA, the enrichment ratio is ≤ 0.25.

On to TDHG, for which the enrichment ratio was ≤ 0.25.

On to IFCS, for which the enrichment ratio is ≤ 0.25.

Regarding ATCT, the enrichment ratio is 7.03.

Regarding MCGY, the enrichment ratio was ≤ 0.25.

On to YHQT, for which the enrichment ratio was ≤ 0.25.

For the variant DTTY, the enrichment ratio is ≤ 0.25.

Consider YCPQ, for which the enrichment ratio was ≤ 0.25.

For EGCI, the enrichment ratio was ≤ 0.25.

Take NFKM: the enrichment ratio was ≤ 0.25.

Turning to TENV, the enrichment ratio was found to be 1.73.

On to AHGN, for which the enrichment ratio is ≤ 0.25.

For the variant HGRA, the enrichment ratio is ≤ 0.25.

Turning to YYMM, the enrichment ratio is ≤ 0.25.

Regarding ESSM, the enrichment ratio was ≤ 0.25.

Take YFVR: the enrichment ratio is ≤ 0.25.

With RQVE, the enrichment ratio was ≤ 0.25.

Take KLGF: the enrichment ratio was ≤ 0.25.

With HNRG, the enrichment ratio is ≤ 0.25.

Take PSSR: the enrichment ratio is ≤ 0.25.

In the case of QGGG, the enrichment ratio stood at 17.7.

With TRVW, the enrichment ratio was ≤ 0.25.

For the variant ASPK, the enrichment ratio was ≤ 0.25.

As to LRMY, the enrichment ratio was ≤ 0.25.

TMKG: the enrichment ratio is ≤ 0.25.

TEEV: the enrichment ratio was ≤ 0.25.

As to GAIR, the enrichment ratio was ≤ 0.25.

As for GCAG, the enrichment ratio was 2.41.

As to VCSP, the enrichment ratio is ≤ 0.25.

As to TEIP, the enrichment ratio is ≤ 0.25.

On to DMWA, for which the enrichment ratio was ≤ 0.25.

As to IEHA, the enrichment ratio is ≤ 0.25.

Take YIMN: the enrichment ratio was determined as 0.646.

LTVS: the enrichment ratio is ≤ 0.25.

As to HYNF, the enrichment ratio is ≤ 0.25.

Turning to ACCE, the enrichment ratio is ≤ 0.25.

With PVLH, the enrichment ratio is ≤ 0.25.

As for TNNH, the enrichment ratio was 0.972.

As for RTSK, the enrichment ratio was ≤ 0.25.

As to DLAC, the enrichment ratio was ≤ 0.25.

In the case of HAKV, the enrichment ratio was ≤ 0.25.

As to VTGW, the enrichment ratio was ≤ 0.25.

Take RFWK: the enrichment ratio was ≤ 0.25.

Consider GKYM, for which the enrichment ratio is ≤ 0.25.

With TEPD, the enrichment ratio was ≤ 0.25.

In the case of SCHN, the enrichment ratio is ≤ 0.25.

With DRQD, the enrichment ratio was ≤ 0.25.

Consider YDCT, for which the enrichment ratio is ≤ 0.25.

For QNHN, the enrichment ratio was ≤ 0.25.

HMTP: the enrichment ratio was ≤ 0.25.

In the case of KRYC, the enrichment ratio is ≤ 0.25.

With SVVA, the enrichment ratio amounted to 1.32.

As to VATD, the enrichment ratio was ≤ 0.25.

ACML: the enrichment ratio was 17.8.

Turning to SFSD, the enrichment ratio was ≤ 0.25.

Take LRIY: the enrichment ratio is ≤ 0.25.

With REQM, the enrichment ratio is ≤ 0.25.

In the case of HHMP, the enrichment ratio is ≤ 0.25.

Turning to NMWA, the enrichment ratio is ≤ 0.25.

For GLVQ, the enrichment ratio was ≤ 0.25.

As to ACHI, the enrichment ratio is ≤ 0.25.

Turning to IMDK, the enrichment ratio is ≤ 0.25.

With YAEW, the enrichment ratio is ≤ 0.25.

Consider VTVM, for which the enrichment ratio was ≤ 0.25.

PAER: the enrichment ratio is ≤ 0.25.

Regarding TPSR, the enrichment ratio was ≤ 0.25.

Consider DMQL, for which the enrichment ratio is ≤ 0.25.

Turning to FFSI, the enrichment ratio was ≤ 0.25.

Regarding KMDF, the enrichment ratio is ≤ 0.25.

For the variant HFWR, the enrichment ratio was ≤ 0.25.

As to FNTY, the enrichment ratio was ≤ 0.25.

As for KYGN, the enrichment ratio was ≤ 0.25.

Consider IWYG, for which the enrichment ratio is ≤ 0.25.

With SFMR, the enrichment ratio is ≤ 0.25.

In the case of PFPM, the enrichment ratio is ≤ 0.25.

As for HNVG, the enrichment ratio is ≤ 0.25.

HTKC: the enrichment ratio was ≤ 0.25.

With FATN, the enrichment ratio was ≤ 0.25.

Regarding SRGM, the enrichment ratio was ≤ 0.25.

For the variant PGTT, the enrichment ratio was ≤ 0.25.

In the case of HWNL, the enrichment ratio was ≤ 0.25.

Consider NQHI, for which the enrichment ratio is ≤ 0.25.

As for RHDF, the enrichment ratio is ≤ 0.25.

Consider EDGH, for which the enrichment ratio is ≤ 0.25.

As to YSCD, the enrichment ratio is ≤ 0.25.

For the variant TNLQ, the enrichment ratio was ≤ 0.25.

RFYH: the enrichment ratio is ≤ 0.25.

Take WSSN: the enrichment ratio is ≤ 0.25.

On to GGQE, for which the enrichment ratio is ≤ 0.25.

For the variant YYPH, the enrichment ratio was ≤ 0.25.

In the case of TSYT, the enrichment ratio amounted to 7.45.

In the case of MCRS, the enrichment ratio is ≤ 0.25.

As to FCSK, the enrichment ratio amounted to 1.8.

As to DFVK, the enrichment ratio was ≤ 0.25.

For the variant IIQL, the enrichment ratio was ≤ 0.25.

Take LGTC: the enrichment ratio is ≤ 0.25.

For the variant RMTW, the enrichment ratio was ≤ 0.25.

In the case of VIPR, the enrichment ratio was ≤ 0.25.

For the variant GLAT, the enrichment ratio is ≤ 0.25.

In the case of SYRT, the enrichment ratio was ≤ 0.25.

For DFAC, the enrichment ratio is ≤ 0.25.

Take DHAI: the enrichment ratio is ≤ 0.25.

With QCHH, the enrichment ratio was ≤ 0.25.

For YYGT, the enrichment ratio is ≤ 0.25.

As to FYKL, the enrichment ratio is ≤ 0.25.

On to NNLW, for which the enrichment ratio was ≤ 0.25.

With THPT, the enrichment ratio is ≤ 0.25.

Take HVFV: the enrichment ratio is ≤ 0.25.

Turning to MIAG, the enrichment ratio was found to be 3.44.

Take PFVD: the enrichment ratio is ≤ 0.25.

Take KTKT: the enrichment ratio is ≤ 0.25.

Take EPVF: the enrichment ratio is ≤ 0.25.

NMYV: the enrichment ratio was ≤ 0.25.

On to THYF, for which the enrichment ratio is ≤ 0.25.

On to TSMC, for which the enrichment ratio was found to be 7.72.

Regarding FQQN, the enrichment ratio was ≤ 0.25.

In the case of ICEL, the enrichment ratio is ≤ 0.25.

For HTPF, the enrichment ratio was ≤ 0.25.

On to SDSS, for which the enrichment ratio came to 0.569.
